Measurements taken from PubChem BioAssay (NCATS).
The inconclusive results got no clear call from the source; some entries with a clear call stand among them for comparison. For some of these results: Potencies beside an inconclusive call are fits to weak or partial responses and may not hold up. Active and inactive are the calls of the source. Unless noted, calls follow the shape of the dose curve; as a rule, active = well fitted curve in the direction sought with a large enough effect; inconclusive = small, poorly fitted or top-dose-only effect, or another doubt; inactive = no such curve, though single readings can be large; an effect the other way counts as inactive or inconclusive.

Tests used:
[1] = target: Cytochrome P450 2C19 (Homo sapiens) (UniProt P33261); assay: qHTS Assay for Inhibitors and Substrates of Cytochrome P450 2C19 (AID 899); also: nearly all actives have a fitted effect of over 60% in size
Procedure, shortened: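 Luminescent read-out of luciferin formed from Luciferin-H EGE (10uM, equal to KM). Enzyme 5nM in 50mM KPO4; compound added, 10 min at 37C, then NADPH regenerating system for 60 min at 37C. Full inhibition defined by 57uM ketoconazole.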

[2] = qHTS Assay for Identification of Small Molecule Agonists for Hypoxia Response Element Signaling Pathway (AID 914; active = well fitted activation curve with a large enough effect in the signal ratio, with a control signal flat, not every such curve was filed as active; inconclusive = small, poorly fitted or top-dose-only effect, or effect the other way, or a change in a side signal; the % refers to the signal ratio); conditions: ME-180 (cervical carcinoma) HRE-bla reporter, beta-lactamase ratio, CoCl2, 17 h; activation: hits give high values
Procedure, shortened: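 Reporter activity (beta-lactamase, CCF4 460nm/530nm ratio) in HRE-bla ME-180 cells is recorded after 17 h compound exposure with EC50 CoCl2 at 37 degrees Celsius. AC50 values come from titration data.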

[3] = qHTS Assay for Identification of Small Molecule Agonists for Thrombopoietin (TPO) Signaling Pathway (AID 917)
Procedure, shortened: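 We measured Glycoprotein IIb promoter–luciferase output in IL-3-starved Ba/F3 murine cells expressing the human TPO receptor after 24 hrs at 37 C with compounds and 26 pM TPO.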

[4] = qHTS Assay for Identification of Small Molecule Antagonists for Thrombopoietin (TPO) Signaling Pathway (AID 918); conditions: TPO-dependent cell signaling reporter, antagonist mode; also: nearly all actives have a fitted effect of over 60% in size
Procedure, shortened: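 First, Ba/F3 reporter cells expressing human TPO receptor were held overnight without IL-3. Next, compound and 26 pM TPO were added. After 24 hrs incubation at 37 C, luciferase luminescence under the Glycoprotein IIb promoter was recorded.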

[5] = Cell Viability - LYMP2-001 (AID 921); conditions: LYMP2-001 lymphoblastoid cell viability; activity change, negative = cytotoxic: at 92.2 µM (top of the series); also: nearly all actives have a fitted effect of over 70% in size
Procedure, shortened: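 qHTS, 1536-well; lymphoblastoid cells, 24 hr compound, 37 C; ATP by CellTiter-Glo, 30 min RT; luminescence; Hill-fit AC50.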

[6] = MultiTox-Fluor Cytotoxicity Assay - LYMP1-001 - Live Cells (AID 947)
[7] = Cell Viability - LYMP2-009 (AID 968); also: nearly all actives have a fitted effect of over 55% in size
[8] = Cell Viability - LYMP2-013 (AID 970); conditions: LYMP2-013 lymphoblastoid cells viability; activity change, negative = cytotoxic: at 92.2 µM (top of the series); also: nearly all actives have a fitted effect of over 55% in size
Procedure, shortened: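 Acute toxicity was measured in human lymphoblastoid cells (2500/well) exposed to compound titrations for 24 hr, with ATP luminescence (CellTiter-Glo) as read-out and AC50 fitted by Hill equation.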

[9] = Cell Viability - LYMP2-017 (AID 972); also: nearly all actives have a fitted effect of over 55% in size
Procedure, shortened: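 Steps: plate 2500 lymphoblastoid cells per well; incubate 5 hr at 37 C; add compound across a concentration series and incubate 24 hr at 37 C; add CellTiter-Glo and read luminescence after 30 min at room temperature; fit Hill curves for AC50.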

[10] = Cell Viability - LYMP2-019 (AID 973); also: nearly all actives have a fitted effect of over 55% in size
Procedure, shortened: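 Cells plated at 2500/well and allowed 5 hr at 37 C before compound addition. After 24 hr incubation, CellTiter-Glo reagent was added, plates sat 30 min at room temperature, and luminescence was recorded.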

[11] = Cell Viability - LYMP2-021 (AID 974)
Procedure, shortened: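 Concentration-response cytotoxicity in a human lymphoblastoid line: 24 hr treatment at 37 C in complete culture medium, tetraoctylammonium bromide as positive control, luminescent ATP quantitation as viability measure.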

[12] = Cell Viability - LYMP2-023 (AID 975); also: nearly all actives have a fitted effect of over 55% in size
Procedure, shortened: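 Concentration-dependent drop in intracellular ATP measures acute cytotoxicity in a human lymphoblastoid line treated for 24 hours in complete culture medium. AC50 values are taken from Hill-equation fits of qHTS data.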

[13] = Cell Viability - LYMP2-002 (AID 977); conditions: LYMP2-002 lymphoblastoid cell viability, qHTS; activity change, negative = cytotoxic: at 92.2 µM (top of the series);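 also: compound exposure lasted 24 h at 37 °C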
Procedure, shortened: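 Human lymphoblastoid LYMP2-002 cells, 2500 per well, exposed to compounds for 24 h at 37 C in complete medium; viability read as intracellular ATP by CellTiter-Glo luminescence, AC50 from Hill fits.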

[14] = Cell Viability - LYMP2-006 (AID 978); also: nearly all actives have a fitted effect of over 60% in size
Procedure, shortened: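 Concentration-dependent loss of intracellular ATP in a human lymphoblastoid line after 24 hr treatment at 37 C was measured by CellTiter-Glo luminescence, with AC50 values obtained from standard Hill-equation modelling.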

[15] = Cell Viability - LYMP2-007 (AID 979);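 also: cells exposed to compound for 24 h before reading; nearly all actives have a fitted effect of over 60% in size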
Procedure, shortened: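 Acute toxicity is scored as a concentration-dependent fall in intracellular ATP in human lymphoblastoid cells treated 24 hr at 37 C, measured by luciferase luminescence; Hill-equation modelling yields AC50.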

[16] = Cell Viability - LYMP2-008 (AID 980); also: nearly all actives have a fitted effect of over 60% in size
Procedure, shortened: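 Acute cytotoxicity is scored as concentration-dependent loss of cellular ATP in a human lymphoblastoid line after 24 hr treatment at 37 C. ATP is quantified by luciferase luminescence.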

[17] = Cell Viability - LYMP2-010 (AID 981); also: nearly all actives have a fitted effect of over 55% in size
Procedure, shortened: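 Acute toxicity is scored as a concentration-dependent loss of cellular ATP in human lymphoblastoid cells after 24 hr compound exposure in complete medium. Tetraoctylammonium bromide is the positive control.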

[18] = Cell Viability - LYMP2-014 (AID 983); conditions: LYMP2-014 lymphoblastoid cells, viability qHTS; activity change, negative = cytotoxicity: at 92.2 µM (top of the series); also: nearly all actives have a fitted effect of over 50% in size
Procedure, shortened: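 Decrease in intracellular ATP after 24 hr treatment at 37 C, measured by luciferase luminescence, indicated cytotoxicity. Concentration-response data were fitted with the standard Hill equation to give AC50.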

[19] = Cell Viability - LYMP2-016 (AID 984); conditions: LYMP2-016 lymphoblastoid cell viability, qHTS; activity change, negative = cytotoxicity: at 92.2 µM (top of the series); also: nearly all actives have a fitted effect of over 55% in size
Procedure, shortened: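 Acute toxicity in a Coriell human lymphoblastoid line is scored as loss of intracellular ATP over 24 h of treatment in complete medium. CellTiter-Glo signal is fitted across concentrations with the Hill equation to give AC50.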

[20] = Cell Viability - LYMP2-018 (AID 985); conditions: LYMP2-018 lymphoblastoid cells, viability (qHTS); activity change, negative = cytotoxicity: at 92.2 µM (top of the series);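 also: compound exposure lasted 24 hr at 37 °C; nearly all actives have a fitted effect of over 50% in size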
Procedure, shortened: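 Acute cytotoxicity is scored as a concentration-dependent drop in intracellular ATP after 24 hr exposure of the lymphoblastoid line in complete culture medium, measured by luciferase luminescence. Potency is expressed as AC50 from Hill modelling.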

[21] = Cell Viability - LYMP2-020 (AID 986); also: nearly all actives have a fitted effect of over 55% in size
Procedure, shortened: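 Acute cytotoxicity in a human lymphoblastoid line is scored as a concentration-dependent fall in cellular ATP after 24 hr at 37 C in complete medium. The positive control is tetraoctylammonium bromide, and potency is given as Hill-fit AC50.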

[22] = Cell Viability - LYMP2-024 (AID 988); also: nearly all actives have a fitted effect of over 60% in size
Procedure, shortened: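 Acute toxicity is measured as concentration-dependent loss of intracellular ATP in a human lymphoblastoid line treated 24 hours at 37 C. Luciferase luminescence quantifies ATP; AC50 values come from standard Hill-equation modelling.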
Potency is read from the fitted curve at half-maximal effect; tags tell the direction and shape of the fitted curve or compound fluorescence and quenching.

Sequence of UniProt P33261 (P33261 whole entry, looked up): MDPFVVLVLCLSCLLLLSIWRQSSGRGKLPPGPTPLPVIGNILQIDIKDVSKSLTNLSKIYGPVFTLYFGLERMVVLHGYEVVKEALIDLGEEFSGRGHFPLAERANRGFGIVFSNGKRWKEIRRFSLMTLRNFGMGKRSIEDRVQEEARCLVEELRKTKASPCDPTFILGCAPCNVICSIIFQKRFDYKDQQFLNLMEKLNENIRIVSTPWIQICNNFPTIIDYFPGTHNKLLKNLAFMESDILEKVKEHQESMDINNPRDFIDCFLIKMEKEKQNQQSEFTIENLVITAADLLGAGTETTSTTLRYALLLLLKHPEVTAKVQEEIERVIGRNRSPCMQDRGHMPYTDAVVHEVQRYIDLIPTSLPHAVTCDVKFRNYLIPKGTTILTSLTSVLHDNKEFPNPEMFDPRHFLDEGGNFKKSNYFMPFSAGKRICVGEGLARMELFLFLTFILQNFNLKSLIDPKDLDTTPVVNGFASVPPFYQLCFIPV

SMILES: Cc1cc(O)c2c(c1)C(=O)c1cc(O)cc(O)c1C2=O
- Potency [1]: active: 7.94 µM
- Potency [2]: inconclusive: 10 µM [inhibitor, partial curve, poor fit]
- Potency [3]: inconclusive: 12.6 µM [inhibitor, partial curve]
- Potency [4]: active: 12.6 µM
- Potency [5]: inconclusive: 63.1 µM [cytotoxic, single point]
- Potency [6]: inconclusive: 0.631 µM [cytotoxic, full curve, poor fit]
- Potency [7]: inconclusive: 79.4 µM [cytotoxic, partial curve, poor fit]
- Potency [8]: inconclusive: 79.4 µM [cytotoxic, single point]
- Potency [9]: inconclusive: 39.8 µM [cytotoxic, partial curve]
- Potency [10]: inconclusive: 50.1 µM [cytotoxic, partial curve, poor fit]
- Potency [11]: inconclusive: 79.4 µM [cytotoxic, partial curve, poor fit]
- Potency [12]: inconclusive: 50.1 µM [cytotoxic, partial curve]
- Potency [13]: inconclusive: 25.1 µM [cytotoxic, partial curve, poor fit]
- Potency [14]: inconclusive: 50.1 µM [cytotoxic, partial curve, poor fit]
- Potency [15]: inconclusive: 39.8 µM [cytotoxic, partial curve, poor fit]
- Potency [16]: inconclusive: 50.1 µM [cytotoxic, partial curve, poor fit]
- Potency [17]: inconclusive: 50.1 µM [cytotoxic, partial curve, poor fit]
- Potency [18]: inconclusive: 50.1 µM [cytotoxic, single point]
- Potency [19]: inconclusive: 50.1 µM [cytotoxic, partial curve, poor fit]
- Potency [20]: inconclusive: 25.1 µM [cytotoxic, partial curve]
- Potency [21]: inconclusive: 39.8 µM [cytotoxic, partial curve, poor fit]
- Potency [22]: inconclusive: 50.1 µM [cytotoxic, partial curve, poor fit]
